PubChem BioAssay AID1508624 (National Center for Advancing Translational Sciences (NCATS), 2021)
Screen size: about 48,000 compounds; about 120 (0.25%) were called active. Inconclusive results, whose numbers are uncertain, are shown with a selection of clear calls. Calls come from the whole dose curve; as a rule, active = well fitted activation curve with a large enough effect; inconclusive = small, poorly fitted or top-dose-only effect, or another doubt; inactive = no such curve, though single readings can be large or run the other way. Potencies beside an inconclusive call are fits to weak or partial responses and may not hold up.
Potency is the fitted concentration of half-maximal effect; tags give direction and shape of the fitted curve.

Assay: Primary qHTS for Identification of Small Molecule Activators of Huntingtin-Antisense Promoter Activity; note: nearly all actives have a fitted effect of over 55% in size
Conditions: HEK293 HTT-AS promoter firefly luciferase reporter, 24 h; activity change, positive = activation: at 57.5 µM (top of the series), percent change from vehicle, -100% = no light
Outline: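 Firefly luciferase signal from promoter-reporter HEK293 cells was scaled between vehicle (0%) and zero RLU (-100%). Compounds were tested at final concentrations of up to 57.5 uM over 24 h at 37 degrees C. PTC124 at 50 uM final served as control inhibitor.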
With `COc1ccc(-n2nnc(-c3nsc(NC(=O)c4cccs4)n3)c2C)cc1OC` the Potency was inconclusive: 31.6 µM [activator, partial curve, poor fit]. For `COc1ccc2c(Sc3ccc(C)cc3)c(C(=O)NCCc3ccccc3)[nH]c2c1`, the Potency was inconclusive: 20 µM [activator, partial curve, poor fit]. With `COc1ccc(NC(=O)c2ccc3c(SCC(=O)O)c4c(nc3c2)CCCC4)c(OC)c1` the activity change, positive = activation was inconclusive: -17.3% [activator]. In the case of `Cc1ccc(CCNC(=O)c2c[nH]c3ccc(S(=O)(=O)Nc4ccc(C)cc4C)cc3c2=O)cc1`, the Potency was “inactive”. For `CS(=O)(=O)N(CC(=O)Nc1ccc(Br)cc1)c1ccccc1Br`, the Potency was “inactive”. For `CCCN(CCC)CCNC(=O)Cn1cc2c(n1)-c1c(oc(C(=O)N3CCCC3)c1C)CC2`, the Potency was “inactive”. In the case of `Cc1cccc(NC(=O)c2cc(-c3ccc4c(c3)OCCO4)on2)c1`, the Potency was inconclusive: 0.891 µM [activator, partial curve, poor fit]. In the case of `CCOc1ccc(Cn2c(-c3ccc(OCC)c(OC)c3)nc3ccccc32)cc1OC`, the Potency was inconclusive: 28.2 µM [activator, partial curve, poor fit]. With `COc1ccc(C)cc1NC(=O)C1CCN(S(=O)(=O)c2ccc3c(c2)CCCN3C(C)=O)CC1` the activity change, positive = activation was inconclusive: 25.4% [activator]. In the case of `CCOc1ccc2nc(N3CCCC(C(=O)NCCCOC)C3)sc2c1` (stereo not given), the Potency was inconclusive: 0.891 µM [activator, full curve, poor fit]. For `Cc1ccc(-c2nc(-c3cc4cccc(OCc5ccc(F)cc5)c4oc3=O)no2)cc1`, the Potency was “inactive”. In the case of `O=C(C=Cc1ccc(O)cc1)c1ccc(O)cc1O`, the Potency was inconclusive: 24.3 µM [activator, single point]. For `CC(C)(C)n1cnc2cc(NCc3ccccc3Cl)ccc21`, the Potency was inconclusive: 3.16 µM [activator, full curve, poor fit]. With `COc1ccc(-c2nc3sc(CCNC(=O)c4cccc(C(F)(F)F)c4)c(C)n3n2)cc1` the Potency was inconclusive: 2 µM [activator, full curve, poor fit]. With `Cc1ccc(-n2ncc3c(N4CCN(CCO)CC4)ncnc32)cc1Cl` the Potency was inconclusive: 1.78 µM [activator, partial curve, poor fit]. In the case of `CCc1nc(-c2cccc(C)c2)c(-c2ccnc(NC(=O)c3ccccc3)c2)s1`, the Potency was “inactive”. In the case of `Cc1ccc(C)c(N2CCN(C(=O)Cn3c(-c4cccs4)cc4ccccc43)CC2)c1`, the activity change, positive = activation was inconclusive: -15% [activator]. With `CCOC(=O)c1ccc(NC(=O)C(CC)Sc2nc3ncccc3o2)cc1` (stereo not given) the Potency was inconclusive: 2.82 µM [activator, partial curve, poor fit]. With `COc1cccc(NS(=O)(=O)c2ccc3[nH]cc(C(=O)NCCc4ccccc4)c(=O)c3c2)c1` the Potency was “inactive”. With `CCCC(=O)N(c1ccc2oc(C)c(C(C)=O)c2c1)S(=O)(=O)c1ccc(C)cc1` the Potency was “inactive”. For `Cc1ccc(C(=O)Nc2ccc(C(=O)OCc3cc(=O)n4nc(C5CC5)sc4n3)cc2)cc1`, the Potency was inconclusive: 20 µM [activator, single point]. In the case of `CCCCOc1ccc(C(=O)N2CCC(c3nc4ccccc4o3)CC2)cc1`, the Potency was “inactive”. For `Cc1c(Cl)cccc1Nc1nn2c(=O)c3ccc(C(=O)NCCc4ccccc4)cc3nc2s1`, the Potency was “inactive”. With `CCOC(=O)Cn1c(=O)oc2cc(S(=O)(=O)N3CCN(c4ccccc4F)CC3)ccc21` the Potency was “inactive”. With `COc1cccc(NC(=O)CN2CCCN(S(=O)(=O)c3ccc(Br)cc3)CC2)c1` the Potency was inconclusive: 2.82 µM [activator, single point]. With `CC(NC(=O)c1nn(C)c2c1CSc1ccccc1-2)c1ccccc1` (stereo not given) the Potency was inconclusive: 15.8 µM [activator, partial curve, poor fit]. With `CCc1ccc(NC(=O)c2cc(-c3cccs3)on2)cc1` the Potency was inconclusive: 15.8 µM [activator, partial curve, poor fit]. For `CC(=O)c1ccc(NC(=O)c2ccc(NC(=O)CCS(=O)(=O)c3cccs3)cc2)cc1`, the Potency was inconclusive: 17.8 µM [activator, partial curve, poor fit]. In the case of `Cc1ccc2nc(COc3cccc(NC(=O)COc4ccccc4F)c3)cc(=O)n2c1`, the Potency was inconclusive: 2.82 µM [activator, full curve]. With `COc1ccc(Nc2c(-c3ccc(C)o3)nc3ccc(Cl)cn23)cc1` the Potency was inconclusive: 10 µM [activator, partial curve]. For `COc1ccccc1NC(=O)CN1C(=O)CC(c2ccc(C)c(C)c2)=Nc2ccccc21`, the Potency was inconclusive: 1.58 µM [activator, partial curve, poor fit]. In the case of `CCn1c(CN2CCCCC2)nc2cc(NC(=O)c3ccccc3[N+](=O)[O-])ccc21`, the Potency was “inactive”. For `COc1cccc(NC(=O)C(=O)NCCc2csc(-c3ccc(C)cc3)n2)c1`, the Potency was inconclusive: 7.94 µM [activator, full curve, poor fit]. With `CCOC(=O)c1ccc(NC(=O)c2csc3c2CCCC3)cc1` the Potency was inconclusive: 3.55 µM [activator, full curve, poor fit]. For `O=C(Nc1nnc(N2CCCCCC2)s1)Nc1ccccc1C(F)(F)F`, the Potency was inconclusive: 6.31 µM [activator, partial curve]. In the case of `Cc1cccc(NC(=O)c2c(NC(=O)c3ccccc3)sc3c2CCCC3)c1`, the Potency was “inactive”. With `O=C(Nc1cc2ccc(O)cc2oc1=O)c1ccc(F)cc1` the Potency was inconclusive: 1.26 µM [activator, partial curve, poor fit]. For `CCOc1ccc(-c2cn3c(n2)sc2cc(C(=O)NCCCN(CC)CC)ccc23)cc1`, the Potency was “inactive”. In the case of `COc1cccc(NC(=O)CSc2nnc(-c3cccs3)o2)c1`, the Potency was inconclusive: 17.8 µM [activator, partial curve, poor fit]. With `CN1CCc2nc3sc(C(=O)Nc4cccc(C#N)c4)c(N)c3cc2C1` the Potency was inconclusive: 3.98 µM [activator, partial curve, poor fit]. For `Cc1ccc(NC(=O)c2sc3nc(-c4ccc(F)cc4)ccc3c2N)cc1F`, the Potency was “inactive”. In the case of `CCc1nnc(NC(=O)c2nc(SCc3ccccc3C)ncc2Cl)s1`, the Potency was “inactive”. With `Cc1cccc(NS(=O)(=O)c2ccc(-n3cccn3)cc2)c1C` the Potency was “inactive”. With `COc1ccccc1Cn1ccn(Cc2c(F)cccc2Cl)c(=O)c1=O` the activity change, positive = activation was inconclusive: -61.6% [activator]. In the case of `CN(C)c1oc(/C=C/c2ccc(F)cc2)nc1C#N`, the Potency was inconclusive: 5.01 µM [activator, full curve]. With `COc1ccccc1-c1cc(C(F)(F)F)nc(S(=O)(=O)CCCC(=O)Nc2cc(OC)c(OC)c(OC)c2)n1` the Potency was “inactive”. For `[O-][n+]1ccccc1SSc1cccc[n+]1[O-]`, the Potency was “inactive”. In the case of `Cc1ccc(NC(=O)c2cccc(N3CCCS3(=O)=O)c2)cc1`, the Potency was inconclusive: 3.98 µM [activator, partial curve, poor fit]. With `Cc1c(NC(=O)c2ccc(Cl)cc2)cc(C(C)C)c(O)c1S(=O)(=O)c1ccc(Cl)cc1` the Potency was inconclusive: 1.41 µM [activator, partial curve, poor fit]. With `COc1ccccc1C(=O)OCc1cc(=O)n2nc(C3CC3)sc2n1` the Potency was inconclusive: 15.8 µM [activator, single point]. With `COc1ccccc1CNC(=O)CSc1ncc2c(n1)-c1ccc(Cl)cc1N(Cc1ccccc1)S2(=O)=O` the Potency was “inactive”. In the case of `Cc1ccc(NC(=O)CSc2nccn2C2CCCC2)cc1`, the Potency was inconclusive: 15.8 µM [activator, partial curve]. For `CC(=O)c1ccc(NC2=NS(=O)(=O)c3ccccc32)cc1`, the Potency was inconclusive: 8.91 µM [activator, partial curve]. With `Cc1ccc(-c2nc3ccccn3c2Nc2c(C)cccc2C)o1` the activity change, positive = activation was inconclusive: -5.55% [activator]. In the case of `Cc1nnc(N2CCCC(C(=O)Nc3ccccc3C(F)(F)F)C2)c2nn(-c3ccccc3)c(C)c12` (stereo not given), the Potency was “inactive”. For `CCOc1nc(NC(=O)NS(=O)(=O)Oc2cccc(F)c2)nc(-c2ccccc2)n1`, the Potency was inconclusive: 14.1 µM [activator, partial curve, poor fit]. In the case of `COc1ccc(NC(=O)c2sc3nc4c(cc3c2N)CN(C(C)C)CC4)c(OC)c1`, the Potency was “inactive”. For `COc1ccc(C(=O)Nc2cc(C(C)C)c(O)c(S(=O)(=O)c3ccc(OC)cc3)c2C)cc1`, the Potency was inconclusive: 2.51 µM [activator, partial curve, poor fit]. In the case of `Cc1ccc(Nc2nnc(-c3ccc(C)c(S(=O)(=O)N4CCN(C)CC4)c3)c3ccccc23)c(C)c1`, the Potency was inconclusive: 0.178 µM [activator, partial curve, poor fit]. For `Cc1cccn2c(Nc3ccccc3)c(-c3ccc(N4CCOCC4)cc3)nc12`, the Potency was inconclusive: 10 µM [activator, partial curve, poor fit]. For `CC(C)c1ccc(OC(=O)c2cc(-c3ccc4c(c3)OCCO4)on2)cc1`, the Potency was “inactive”. With `COc1cccc(N2CCN(C(=O)c3cccc(NC(=O)c4nsc5ccccc45)c3)CC2)c1` the Potency was inconclusive: 0.316 µM [activator, full curve, poor fit]. In the case of `O=C(OCc1ccco1)c1ccc2c(c1)N(Cc1ccc([N+](=O)[O-])cc1)C(=O)c1ccccc1S2`, the Potency was “inactive”. In the case of `Cc1nc(-n2nc(C)c(CCC(C)C)c2C)sc1C(=O)Nc1cccc(Cl)c1C`, the Potency was inconclusive: 11.2 µM [activator, partial curve]. In the case of `Cc1ccc(SCC(=O)Nc2ccc3oc(-c4ccc(F)cc4)nc3c2)cc1`, the Potency was inconclusive: 1.41 µM [activator, full curve, poor fit].
